Reference: article PMC13083723 (Patterns, 2026)
Hit rate of the full screen: of about 5,400 compounds, about 190 (3.5%) showed an effect of 50% or more. The list shows a part of the results.

What follows are molecules tested on Vero-E6 (assay: primary screen, phospholipidosis by LipidTOX staining; higher = more effect of the substance). Conditions: 10 µM.
Outline: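 Drug-induced phospholipidosis detected with HCS LipidTOX Red reagent in Vero-E6 cells. Compounds tested at 10 μM, with amiodarone (10 μM) as positive control and DMSO (0.1 v/v %) as vehicle.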

Row | Structure (SMILES) | result_ITMP
1 | CS(=O)(=O)c1ccc([C@@H](CC2CCCC2)C(=O)Nc2nccs2)cc1 | -2.12%
2 | N#CSc1cc(SC#N)c(N)nc1N | -0.78%
3 | CCc1cc(C(C)=O)c(O)cc1OCCCCCC(C)(C)c1nnn[nH]1 | -0.08%
4 | Cc1cc(O)c(C(=O)N[C@@H](C(=O)N[C@@H]2C(=O)N3C(C(=O)[O-])=C(CSc4nnnn4C)CS[C@H]23)c2ccc(O)cc2)cn1 | -6.76%
5 | CN1C[C@@H]2C[C@H]1CN2c1cc2c(cc1F)c(=O)c(C(=O)O)cn2C1CC1 | -0.66%
6 | CC#CC(=O)N1CCC[C@H]1c1nc(-c2ccc(C(=O)Nc3ccccn3)cc2)c2c(N)nccn12 | -1.7%
7 | CC(=O)Nc1nc2c(Oc3cc(-c4ccc(C(F)(F)F)cc4)ncn3)cccc2s1 | -4.53%
8 | CC(C)c1ccc(-c2cc(=O)c3ccccc3o2)cc1 | -1.84%
9 | CC(C)n1nc(-c2ccc3oc(N)nc3c2)c2c(N)ncnc21 | 1.87%
10 | CCCCCCCCCCCCCCCC(=O)OC[C@@H](NC(=O)C(Cl)Cl)[C@H](O)c1ccc([N+](=O)[O-])cc1 | -1.35%
11 | N=C(N)Nc1ccc(C(=O)Oc2ccc3cc(C(=N)N)ccc3c2)cc1 | 2.02%
12 | NC(=O)c1nc(F)cnc1O | -3.41%
13 | Nc1ncnc2c1ncn2C1O[C@H](COP(=O)(O)OP(=O)([O-])OP(=O)([O-])O)[C@@H](O)[C@H]1O (some centres unmarked) | 6.44%
14 | COc1cc(C[C@@H](CO[C@@H]2O[C@H](CO)[C@@H](O)[C@H](O)[C@H]2O)[C@H](CO[C@@H]2O[C@H](CO)[C@@H](O)[C@H](O)[C@H]2O)Cc2ccc(O)c(OC)c2)ccc1O | 4.43%
15 | C[C@H](NC(=O)CCc1nc2ccccc2c(=O)[nH]1)c1ccccc1 [R4A_0003503_001 / SPE_A63444178] | 0.66%
16 | Cc1nnsc1C(=O)Nc1ccc(-n2nc(C(F)(F)F)cc2C(F)(F)F)cc1 | -7.75%
17 | Oc1c(I)cc(I)cc1I | -4.04%
18 | CCCCCCCCCCCCCCCC[n+]1ccn(Cc2ccccc2)c1C | -1.61%
19 | C=CC(=O)Nc1cccc(Nc2nc(Nc3ccc(Oc4ccnc(C(=O)NC)c4)cc3)ncc2F)c1 | 0.98%
20 | CCCSc1nc(N[C@@H]2C[C@H]2c2ccc(F)c(F)c2)c2nnn([C@@H]3C[C@H](OCCO)[C@@H](O)[C@H]3O)c2n1 | -1.6%
21 | OC[C@H]1O[C@H](O[C@H]2[C@H](O)[C@@H](O)[C@H](O)O[C@@H]2CO)[C@H](O)[C@@H](O)[C@@H]1O | -0.88%
22 | CN1C[C@H](C(=O)N[C@]2(C)O[C@@]3(O)[C@@H]4CCCN4C(=O)[C@H](Cc4ccccc4)N3C2=O)C[C@@H]2c3cccc4[nH]cc(c34)C[C@H]21 | -1.82%
23 | C=C1C[C@@]2(O)O[C@@]3(C[C@H]2C(C)C)[C@@H](C)CC[C@@H]13 | -4.82%
24 | O=C(O)COCCN1CCN(C(c2ccccc2)c2ccc(Cl)cc2)CC1 (centres unmarked) | -4.08%
25 | N[C@@H]1CONC1=O | -0.5%
26 | O=C1NCN(c2ccccc2)C12CCN(CC1COc3ccccc3O1)CC2 (centres unmarked) | -0.96%
27 | N[C@H]1C[C@@H]1c1ccc(-c2cccc(O)c2)cc1 | 37.1%

Row | Structure (SMILES) | result_ITMP
28 | CCCc1c2oc(C(=O)O)cc(=O)c2cc2c(=O)cc(C(=O)O)n(CC)c12 | -1.04%
29 | COc1cc2c(cc1OC)[C@@H](Cc1cc(OC)c(OC)c(OC)c1)[N+](C)(CCCOC(=O)CC/C=C/CCC(=O)OCCC[N+]1(C)CCc3cc(OC)c(OC)cc3[C@H]1Cc1cc(OC)c(OC)c(OC)c1)CC2 (some centres unmarked) | -2.07%
30 | O=C1c2ccccc2C(=O)C1c1ccc(Cl)cc1 | 1.02%
31 | CN(C)CC(O)Cn1c2ccc(Br)cc2c2cc(Br)ccc21 (centres unmarked) | 28.6%
32 | O=C(O)c1ccccn1 | -2.21%
33 | CC(=O)O[C@]1(C(C)=O)CC[C@H]2[C@@H]3C=C(Cl)C4=CC(=O)[C@@H]5C[C@@H]5[C@]4(C)[C@H]3CC[C@@]21C | 3.68%
34 | O=C(O)C1CCCN(CCC=C(c2ccccc2)c2ccccc2)C1 (centres unmarked) | -1.78%
35 | CC(C)c1cc(-c2n[nH]c(=O)n2-c2ccc3c(ccn3C)c2)c(O)cc1O | -7.81%
36 | N=C(N)c1ccc(/C=C/c2ccc(C(=N)N)cc2O)cc1 | -2.09%
37 | COc1ccc(-c2ccc3ncc4c(c3c2)n(-c2ccc(N3CCNCC3)c(C(F)(F)F)c2)c(=O)n4C)cn1 | 5.95%
38 | Clc1ccc(CO/N=C(\Cn2ccnc2)c2ccc(Cl)cc2Cl)c(Cl)c1 | 0.41%
39 | Cc1ncc(C)n2nc([C@@H]3C[C@H]3c3nc4c5cccnc5ccn4c3C)nc12 | -2.79%
40 | COc1cccc(CCc2ccccc2OCC[C@@H]2C[C@@H](O)CN2C)c1 | 90.4%
41 | O=C(Nc1ccc(C(O)(C(F)(F)F)C(F)(F)F)cc1)c1ccc(C(F)(F)F)cc1 | -1.38%
42 | CC1CC(OC(=O)C(O)c2ccccc2)CC(C)(C)C1 (centres unmarked) | 2.57%
43 | O=C(N/N=C/c1ccccc1O)c1ccccc1O | -3.15%
44 | COc1ccc(C(Cl)=C(c2ccc(OC)cc2)c2ccc(OC)cc2)cc1 | -10%
45 | O=c1[nH]c2cc(C(F)(F)F)c(N3CCOCC3)cc2n(CP(=O)(O)O)c1=O | -7.52%
46 | O=C(O)c1cccnc1Nc1cccc(C(F)(F)F)c1 | -3.76%
47 | Cc1cn([C@H]2O[C@@H](CO)[C@H](O)[C@H]2F)c(=O)[nH]c1=O | 5.41%
48 | NC1(C(=O)N[C@@H](CCO)c2ccc(Cl)cc2)CCN(c2ncnc3[nH]ccc23)CC1 | 4.08%
49 | CC(CCc1ccccc1)NCC(O)c1ccc(O)c(C(N)=O)c1 (centres unmarked) | -2.33%
50 | Nc1ncnc2c1nc(Br)n2[C@@H]1O[C@@H]2COP(=O)([O-])O[C@H]2[C@H]1O | 15.8%
51 | CCOC(=O)[C@H](CCc1ccccc1)N[C@@H](C)C(=O)N1Cc2ccccc2C[C@H]1C(=O)O | 6.02%
52 | Cn1cc(-c2ccc3ncc(Cc4ccc5ncccc5c4)n3n2)cn1 | 3.96%
53 | CN1C(C)(C)CCCC1(C)C | -4.52%
